Experimental data published in patent publication US11178870B2 (priority 2017, dated 2021).

Assays:
Format in all cases: in vivo
Puccinia recondita = test: Test Example E: Brown rust on wheat; details: for Test E control value (brown rust on wheat): class of control value, Table 7; for control value, Test E (brown rust on wheat): Table 7, Test E; for Test E control value: Brown rust on wheat
Plasmopara viticola = test: Test Example G: Downy mildew on vine; details: for Test G control value (downy mildew on vine): 250 ppm spray, investigated 7 to 10 days after inoculation; for Test G control value (downy mildew on vine) / Test G control value: 2.5 ml/pot; for control value, Test G (downy mildew on vine): 250 ppm sprayed (2.5 ml/pot) before inoculation, assessed 7 to 10 days after inoculation; for Test G control value: Downy mildew on vine, 250 ppm sprayed, 7 to 10 days after inoculation
[1] = test system: Blumeria graminis f. sp. hordei; test: Test Example D: Powdery mildew on barley; details: for Test D control value (powdery mildew on barley): class of control value, Table 7; for control value, Test D (powdery mildew on barley): Table 7, Test D; for Test D control value: Powdery mildew on barley
Botrytis cinerea = test: Test Example B: Gray mold on tomato; details: for Test B control value (gray mold on tomato): class of control value, Table 7; for control value, Test B (gray mold on tomato): Table 7, Test B; for Test B control value: Gray mold on tomato
Alternaia brassicicola = test: Test Example C: Alternaria sooty spot on cabbage; details: for Test C control value (Alternaria sooty spot on cabbage): class of control value, Table 7; for control value, Test C (Alternaria sooty spot on cabbage): Table 7, Test C; for Test C control value: Alternaria sooty spot on cabbage

SMILES	Test E control value (brown rust on wheat) (Puccinia recondita)	Test G control value (downy mildew on vine) (Plasmopara viticola)	Test D control value (powdery mildew on barley) [1]	Test B control value (gray mold on tomato) (Botrytis cinerea)	Test C control value (Alternaria sooty spot on cabbage) (Alternaia brassicicola)	other results
Cn1c(-c2ccc(F)cc2F)c(-n2cc(F)cn2)cc(Cl)c1=O [Compound 464]	H (H shows the control value more than 50%)	L (L shows the control value of 50% or less)	L (L shows the control value of 50% or less)	H (H shows the control value more than 50%)	H (H shows the control value more than 50%)	
CCn1c(-c2ccccc2C(F)(F)F)c(-n2cc(C)cn2)cc(Br)c1=O [Compound 374]	H (H shows the control value more than 50%)	H (H shows the control value more than 50%)	H (H shows the control value more than 50%)	L (L shows the control value of 50% or less)	L (L shows the control value of 50% or less)	
O=c1c(Cl)cc(-n2cc(Cl)cn2)c(-c2ccc(F)cc2F)n1CC(F)F [Compound 212]						control value, Test E (brown rust on wheat) (Puccinia recondita): L (L shows the control value of 50% or less); control value, Test G (downy mildew on vine) (Plasmopara viticola): L (L shows the control value of 50% or less); control value, Test D (powdery mildew on barley) [1]: H (H shows the control value more than 50%); control value, Test B (gray mold on tomato) (Botrytis cinerea): L (L shows the control value of 50% or less); control value, Test C (Alternaria sooty spot on cabbage) (Alternaia brassicicola): H (H shows the control value more than 50%)
CCn1c(-c2c(F)cc(F)cc2F)c(-n2cc(Br)cn2)cc(Br)c1=O [Compound 77]						Test E control value (Puccinia recondita): H (H shows the control value more than 50%); Test G control value (Plasmopara viticola): L (L shows the control value of 50% or less); Test D control value [1]: H (H shows the control value more than 50%); Test B control value (Botrytis cinerea): H (H shows the control value more than 50%); Test C control value (Alternaia brassicicola): H (H shows the control value more than 50%)
CCn1c(-c2ccccc2Cl)c(-n2cc(F)cn2)ccc1=O [Compound 350]						control value, Test E (brown rust on wheat) (Puccinia recondita): H (H shows the control value more than 50%); control value, Test G (downy mildew on vine) (Plasmopara viticola): H (H shows the control value more than 50%); control value, Test D (powdery mildew on barley) [1]: H (H shows the control value more than 50%); control value, Test B (gray mold on tomato) (Botrytis cinerea): H (H shows the control value more than 50%); control value, Test C (Alternaria sooty spot on cabbage) (Alternaia brassicicola): H (H shows the control value more than 50%)
CCn1c(-c2c(F)cc(F)cc2F)c(-c2cccnc2Cl)cc(Cl)c1=O [Compound 62]						Test E control value (Puccinia recondita): H (H shows the control value more than 50%); Test G control value (Plasmopara viticola): H (H shows the control value more than 50%); Test D control value [1]: H (H shows the control value more than 50%); Test B control value (Botrytis cinerea): H (H shows the control value more than 50%); Test C control value (Alternaia brassicicola): H (H shows the control value more than 50%)
CCn1c(-c2ccccc2F)c(-n2cc(C)cn2)ccc1=O [Compound 259]						control value, Test E (brown rust on wheat) (Puccinia recondita): H (H shows the control value more than 50%); control value, Test G (downy mildew on vine) (Plasmopara viticola): L (L shows the control value of 50% or less); control value, Test D (powdery mildew on barley) [1]: H (H shows the control value more than 50%); control value, Test B (gray mold on tomato) (Botrytis cinerea): L (L shows the control value of 50% or less); control value, Test C (Alternaria sooty spot on cabbage) (Alternaia brassicicola): H (H shows the control value more than 50%)
COc1cc(F)c(-c2c(-n3cc(Cl)cn3)cc(Br)c(=O)n2C)c(F)c1 [Compound 178]						Test E control value (Puccinia recondita): H (H shows the control value more than 50%); Test G control value (Plasmopara viticola): H (H shows the control value more than 50%); Test D control value [1]: H (H shows the control value more than 50%); Test B control value (Botrytis cinerea): H (H shows the control value more than 50%); Test C control value (Alternaia brassicicola): H (H shows the control value more than 50%)
O=c1c(Br)cc(-c2sc(Br)cc2Br)c(-c2c(F)cccc2F)n1CC(F)F [Compound 422]	H (H shows the control value more than 50%)	L (L shows the control value of 50% or less)	H (H shows the control value more than 50%)	L (L shows the control value of 50% or less)	H (H shows the control value more than 50%)	
O=c1ccc(-n2cc(Cl)cn2)c(-c2ccc(F)cc2F)n1CC(F)F [Compound 211]						control value, Test E (brown rust on wheat) (Puccinia recondita): H (H shows the control value more than 50%); control value, Test G (downy mildew on vine) (Plasmopara viticola): L (L shows the control value of 50% or less); control value, Test D (powdery mildew on barley) [1]: H (H shows the control value more than 50%); control value, Test B (gray mold on tomato) (Botrytis cinerea): L (L shows the control value of 50% or less); control value, Test C (Alternaria sooty spot on cabbage) (Alternaia brassicicola): H (H shows the control value more than 50%)
O=c1c(Cl)cc(-c2sc(Cl)cc2Cl)c(-c2c(F)cccc2F)n1CC(F)F [Compound 436]	H (H shows the control value more than 50%)	H (H shows the control value more than 50%)	H (H shows the control value more than 50%)	H (H shows the control value more than 50%)	H (H shows the control value more than 50%)	
Cc1cc(Br)sc1-c1ccc(=O)n(CC(F)F)c1-c1c(F)cccc1F [Compound 443]	H (H shows the control value more than 50%)	L (L shows the control value of 50% or less)	H (H shows the control value more than 50%)	H (H shows the control value more than 50%)	H (H shows the control value more than 50%)	
Cc1cnn(-c2cc(Cl)c(=O)n(C)c2-c2ccc(F)cc2Cl)c1Cl [Compound 476]	H (H shows the control value more than 50%)	H (H shows the control value more than 50%)	H (H shows the control value more than 50%)	H (H shows the control value more than 50%)	H (H shows the control value more than 50%)	
CCn1c(-c2c(F)cc(OC)cc2F)c(-c2cccnc2Cl)cc(Br)c1=O [Compound 81]						Test E control value (Puccinia recondita): H (H shows the control value more than 50%); Test G control value (Plasmopara viticola): L (L shows the control value of 50% or less); Test D control value [1]: H (H shows the control value more than 50%); Test B control value (Botrytis cinerea): H (H shows the control value more than 50%); Test C control value (Alternaia brassicicola): H (H shows the control value more than 50%)
CCn1c(-c2ccccc2F)c(-n2cc(F)cn2)cc(Br)c1=O [Compound 384]	H (H shows the control value more than 50%)	L (L shows the control value of 50% or less)	H (H shows the control value more than 50%)	H (H shows the control value more than 50%)	H (H shows the control value more than 50%)	
CNn1c(-c2ccc(F)cc2Cl)c(-n2ncc(C)c2Cl)cc(Br)c1=O [Compound 478]	H (H shows the control value more than 50%)	L (L shows the control value of 50% or less)	H (H shows the control value more than 50%)	H (H shows the control value more than 50%)	H (H shows the control value more than 50%)	
CCn1c(-c2ccccc2OC)c(-n2cc(Cl)cn2)ccc1=O [Compound 242]						control value, Test E (brown rust on wheat) (Puccinia recondita): L (L shows the control value of 50% or less); control value, Test G (downy mildew on vine) (Plasmopara viticola): L (L shows the control value of 50% or less); control value, Test D (powdery mildew on barley) [1]: L (L shows the control value of 50% or less); control value, Test B (gray mold on tomato) (Botrytis cinerea): H (H shows the control value more than 50%); control value, Test C (Alternaria sooty spot on cabbage) (Alternaia brassicicola): L (L shows the control value of 50% or less)
CCn1c(-c2ccc(OC)cc2F)c(-n2cc(Cl)cn2)cc(Cl)c1=O [Compound 149]						Test E control value (Puccinia recondita): H (H shows the control value more than 50%); Test G control value (Plasmopara viticola): L (L shows the control value of 50% or less); Test D control value [1]: H (H shows the control value more than 50%); Test B control value (Botrytis cinerea): H (H shows the control value more than 50%); Test C control value (Alternaia brassicicola): H (H shows the control value more than 50%)
Cc1cnn(-c2cc(Br)c(=O)n(N)c2-c2ccc(F)cc2F)c1Cl [Compound 376]	H (H shows the control value more than 50%)	H (H shows the control value more than 50%)	L (L shows the control value of 50% or less)	H (H shows the control value more than 50%)	L (L shows the control value of 50% or less)	
Cc1ccsc1-c1cc(Br)c(=O)n(CC(F)F)c1-c1c(F)cccc1F [Compound 446]	H (H shows the control value more than 50%)	L (L shows the control value of 50% or less)	H (H shows the control value more than 50%)	H (H shows the control value more than 50%)	H (H shows the control value more than 50%)	
